± gives the standard deviation of the averaged measurements. Laboratory Escherichia coli strains with one amino-acid change in an essential protein, pooled on minimal glucose agar with carbenicillin or gentamicin at twice the control MIC (plus kanamycin and chloramphenicol for the plasmids), 48 h. Fold change of barcode share against drug-free plates; higher = less susceptible. Active = above 20 in both replicates (the paper's putatively resistant). '<' = one read or none on drug, '>' = one read or none on a drug-free plate. Shares are relative, so most strains fall below 1 when a few take over. Listed are strains with at least 15 reads on both drug-free plates, and hits; most hits rest on fewer reference reads. Replicate rank correlation about 0.5. Edits are read from barcodes.
Molecular target: Escherichia coli (laboratory strain)
Test: barcode share on antibiotic plates over drug-free plates; higher = less susceptible
Procedure: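 A pool of E. coli strains, each edited to carry one amino-acid change in an essential protein, was grown for 48 h on minimal glucose agar with or without antibiotic; strain barcodes were sequenced; mean of two replicates.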

[1] = antibiotic: carbenicillin, 2× MIC (3.1 µg/mL)
[2] = antibiotic: gentamicin, 2× MIC (MIC 0.45 µg/mL)

| Protein | fold change of barcode share [1] | fold change of barcode share [2] |
| --- | --- | --- |
| ppc L778P (protein) MNEQYSALRSNVSMLGKVLGETIKDALGEHILERVETIRKLSKSSRAGNDANRQELLTTLQNLSNDELLPVARAFSQFLNLANTAEQYHSISPKGEAASNPEVIARTLRKLKNQPELSEDTIKKAVESLSLELVLTAHPTEITRRTLIHKMVEVNACLKQLDNKDIADYEHNQLMRRLRQLIAQSWHTDEIRKLRPSPVDEAKWGFAVVENSLWQGVPNYLRELNEQLEENLGYKLPVEFVPVRFTSWMGGDRDGNPNVTADITRHVLLLSRWKATDLFLKDIQVLVSELSMVEATPELLALVGEEGAAEPYRYLMKNLRSRLMATQAWLEARLKGEELPKPEGLLTQNEELWEPLYACYQSLQACGMGIIANGDLLDTLRRVKCFGVPLVRIDIRQESTRHTEALGELTRYLGIGDYESWSEADKQAFLIRELNSKRPLLPRNWQPSAETREVLDTCQVIAEAPQGSIAAYVISMAKTPSDVLAVHLLLKEAGIGFAMPVAPLFETLDDLNNANDVMTQLLNIDWYRGLIQGKQMVMIGYSDSAKDAGVMAASWAQYQAQDALIKTCEKAGIELTLFHGRGGSIGRGGAPAHAALLSQPPGSLKGGLRVTEQGEMIRFKYGLPEITVSSLSLYTGAILEANLLPPPEPKESWRRIMDELSVISCDVYRGYVRENKDFVPYFRSATPEQELGKLPLGSRPAKRRPTGGVESLRAIPWIFAWTQNRLMLPAWLGAGTALQKVVEDGKQSELEAMCRDWPFFSTRLGMLEMVFAKADLWPAEYYDQRLVDKALWPLGKELRNLQEEDIKVVLAIANDSHLMADLPWIAESIQLRNIYTDPLNVLQAELLHRSRQAEKEGQEPDPRVEQALMVTIAGIAAGMRNTG | 3.41 ± 0.23 | 0.0678 ± 0.043 |
| ppc L158A (protein) MNEQYSALRSNVSMLGKVLGETIKDALGEHILERVETIRKLSKSSRAGNDANRQELLTTLQNLSNDELLPVARAFSQFLNLANTAEQYHSISPKGEAASNPEVIARTLRKLKNQPELSEDTIKKAVESLSLELVLTAHPTEITRRTLIHKMVEVNACAKQLDNKDIADYEHNQLMRRLRQLIAQSWHTDEIRKLRPSPVDEAKWGFAVVENSLWQGVPNYLRELNEQLEENLGYKLPVEFVPVRFTSWMGGDRDGNPNVTADITRHVLLLSRWKATDLFLKDIQVLVSELSMVEATPELLALVGEEGAAEPYRYLMKNLRSRLMATQAWLEARLKGEELPKPEGLLTQNEELWEPLYACYQSLQACGMGIIANGDLLDTLRRVKCFGVPLVRIDIRQESTRHTEALGELTRYLGIGDYESWSEADKQAFLIRELNSKRPLLPRNWQPSAETREVLDTCQVIAEAPQGSIAAYVISMAKTPSDVLAVHLLLKEAGIGFAMPVAPLFETLDDLNNANDVMTQLLNIDWYRGLIQGKQMVMIGYSDSAKDAGVMAASWAQYQAQDALIKTCEKAGIELTLFHGRGGSIGRGGAPAHAALLSQPPGSLKGGLRVTEQGEMIRFKYGLPEITVSSLSLYTGAILEANLLPPPEPKESWRRIMDELSVISCDVYRGYVRENKDFVPYFRSATPEQELGKLPLGSRPAKRRPTGGVESLRAIPWIFAWTQNRLMLPAWLGAGTALQKVVEDGKQSELEAMCRDWPFFSTRLGMLEMVFAKADLWLAEYYDQRLVDKALWPLGKELRNLQEEDIKVVLAIANDSHLMADLPWIAESIQLRNIYTDPLNVLQAELLHRSRQAEKEGQEPDPRVEQALMVTIAGIAAGMRNTG | 2.47 ± 0.51 | 0.0215 ± 0.01 |
| ppc L158W (protein) MNEQYSALRSNVSMLGKVLGETIKDALGEHILERVETIRKLSKSSRAGNDANRQELLTTLQNLSNDELLPVARAFSQFLNLANTAEQYHSISPKGEAASNPEVIARTLRKLKNQPELSEDTIKKAVESLSLELVLTAHPTEITRRTLIHKMVEVNACWKQLDNKDIADYEHNQLMRRLRQLIAQSWHTDEIRKLRPSPVDEAKWGFAVVENSLWQGVPNYLRELNEQLEENLGYKLPVEFVPVRFTSWMGGDRDGNPNVTADITRHVLLLSRWKATDLFLKDIQVLVSELSMVEATPELLALVGEEGAAEPYRYLMKNLRSRLMATQAWLEARLKGEELPKPEGLLTQNEELWEPLYACYQSLQACGMGIIANGDLLDTLRRVKCFGVPLVRIDIRQESTRHTEALGELTRYLGIGDYESWSEADKQAFLIRELNSKRPLLPRNWQPSAETREVLDTCQVIAEAPQGSIAAYVISMAKTPSDVLAVHLLLKEAGIGFAMPVAPLFETLDDLNNANDVMTQLLNIDWYRGLIQGKQMVMIGYSDSAKDAGVMAASWAQYQAQDALIKTCEKAGIELTLFHGRGGSIGRGGAPAHAALLSQPPGSLKGGLRVTEQGEMIRFKYGLPEITVSSLSLYTGAILEANLLPPPEPKESWRRIMDELSVISCDVYRGYVRENKDFVPYFRSATPEQELGKLPLGSRPAKRRPTGGVESLRAIPWIFAWTQNRLMLPAWLGAGTALQKVVEDGKQSELEAMCRDWPFFSTRLGMLEMVFAKADLWLAEYYDQRLVDKALWPLGKELRNLQEEDIKVVLAIANDSHLMADLPWIAESIQLRNIYTDPLNVLQAELLHRSRQAEKEGQEPDPRVEQALMVTIAGIAAGMRNTG | 1.85 ± 0.35 | 0.0307 ± 0.022 |
| ppc L158Q (protein) MNEQYSALRSNVSMLGKVLGETIKDALGEHILERVETIRKLSKSSRAGNDANRQELLTTLQNLSNDELLPVARAFSQFLNLANTAEQYHSISPKGEAASNPEVIARTLRKLKNQPELSEDTIKKAVESLSLELVLTAHPTEITRRTLIHKMVEVNACQKQLDNKDIADYEHNQLMRRLRQLIAQSWHTDEIRKLRPSPVDEAKWGFAVVENSLWQGVPNYLRELNEQLEENLGYKLPVEFVPVRFTSWMGGDRDGNPNVTADITRHVLLLSRWKATDLFLKDIQVLVSELSMVEATPELLALVGEEGAAEPYRYLMKNLRSRLMATQAWLEARLKGEELPKPEGLLTQNEELWEPLYACYQSLQACGMGIIANGDLLDTLRRVKCFGVPLVRIDIRQESTRHTEALGELTRYLGIGDYESWSEADKQAFLIRELNSKRPLLPRNWQPSAETREVLDTCQVIAEAPQGSIAAYVISMAKTPSDVLAVHLLLKEAGIGFAMPVAPLFETLDDLNNANDVMTQLLNIDWYRGLIQGKQMVMIGYSDSAKDAGVMAASWAQYQAQDALIKTCEKAGIELTLFHGRGGSIGRGGAPAHAALLSQPPGSLKGGLRVTEQGEMIRFKYGLPEITVSSLSLYTGAILEANLLPPPEPKESWRRIMDELSVISCDVYRGYVRENKDFVPYFRSATPEQELGKLPLGSRPAKRRPTGGVESLRAIPWIFAWTQNRLMLPAWLGAGTALQKVVEDGKQSELEAMCRDWPFFSTRLGMLEMVFAKADLWLAEYYDQRLVDKALWPLGKELRNLQEEDIKVVLAIANDSHLMADLPWIAESIQLRNIYTDPLNVLQAELLHRSRQAEKEGQEPDPRVEQALMVTIAGIAAGMRNTG | 0.616 ± 0.015 | < 0.00436 |
| ppc I718Q (protein) MNEQYSALRSNVSMLGKVLGETIKDALGEHILERVETIRKLSKSSRAGNDANRQELLTTLQNLSNDELLPVARAFSQFLNLANTAEQYHSISPKGEAASNPEVIARTLRKLKNQPELSEDTIKKAVESLSLELVLTAHPTEITRRTLIHKMVEVNACLKQLDNKDIADYEHNQLMRRLRQLIAQSWHTDEIRKLRPSPVDEAKWGFAVVENSLWQGVPNYLRELNEQLEENLGYKLPVEFVPVRFTSWMGGDRDGNPNVTADITRHVLLLSRWKATDLFLKDIQVLVSELSMVEATPELLALVGEEGAAEPYRYLMKNLRSRLMATQAWLEARLKGEELPKPEGLLTQNEELWEPLYACYQSLQACGMGIIANGDLLDTLRRVKCFGVPLVRIDIRQESTRHTEALGELTRYLGIGDYESWSEADKQAFLIRELNSKRPLLPRNWQPSAETREVLDTCQVIAEAPQGSIAAYVISMAKTPSDVLAVHLLLKEAGIGFAMPVAPLFETLDDLNNANDVMTQLLNIDWYRGLIQGKQMVMIGYSDSAKDAGVMAASWAQYQAQDALIKTCEKAGIELTLFHGRGGSIGRGGAPAHAALLSQPPGSLKGGLRVTEQGEMIRFKYGLPEITVSSLSLYTGAILEANLLPPPEPKESWRRIMDELSVISCDVYRGYVRENKDFVPYFRSATPEQELGKLPLGSRPAKRRPTGGVESLRAIPWQFAWTQNRLMLPAWLGAGTALQKVVEDGKQSELEAMCRDWPFFSTRLGMLEMVFAKADLWLAEYYDQRLVDKALWPLGKELRNLQEEDIKVVLAIANDSHLMADLPWIAESIQLRNIYTDPLNVLQAELLHRSRQAEKEGQEPDPRVEQALMVTIAGIAAGMRNTG | 0.301 ± 0.088 | < 0.0088 |
| prmC L28A (protein) MEYQHWLREAISQLQASESPRRDAEILAEHVTGRGRTFILAFGETQLTDEQCQQLDALLTRRRDGEPIAHLTGVREFWSLPLFVSPATLIPRPDTECLVEQALARLPEQPCRILDLGTGTGAIALALASERPDCEIIAVDRMPDAVSLAQRNAQHLAIKNIHILQSDWFSALAGQQFAMIVSNPPYIDEQDPHLQQGDVRFEPLTALVAADSGMADIVHIIEQSRNALVSGGFLLLEHGWQQGEAVRQAFILAGYHDVETCRDYGDNERVTLGRYYQ | 0.3 ± 0.026 | 0.00387 ± 0.003 |
| prmC L28W (protein) MEYQHWLREAISQLQASESPRRDAEILWEHVTGRGRTFILAFGETQLTDEQCQQLDALLTRRRDGEPIAHLTGVREFWSLPLFVSPATLIPRPDTECLVEQALARLPEQPCRILDLGTGTGAIALALASERPDCEIIAVDRMPDAVSLAQRNAQHLAIKNIHILQSDWFSALAGQQFAMIVSNPPYIDEQDPHLQQGDVRFEPLTALVAADSGMADIVHIIEQSRNALVSGGFLLLEHGWQQGEAVRQAFILAGYHDVETCRDYGDNERVTLGRYYQ | 0.343 ± 0.095 | 0.00996 ± 0.0037 |
| prmC L28Q (protein) MEYQHWLREAISQLQASESPRRDAEILQEHVTGRGRTFILAFGETQLTDEQCQQLDALLTRRRDGEPIAHLTGVREFWSLPLFVSPATLIPRPDTECLVEQALARLPEQPCRILDLGTGTGAIALALASERPDCEIIAVDRMPDAVSLAQRNAQHLAIKNIHILQSDWFSALAGQQFAMIVSNPPYIDEQDPHLQQGDVRFEPLTALVAADSGMADIVHIIEQSRNALVSGGFLLLEHGWQQGEAVRQAFILAGYHDVETCRDYGDNERVTLGRYYQ | 0.345 ± 0.056 | 0.00333 ± 0.0018 |

Source: the supplement of paper PMC11876631
